# The other results are listed elsewhere or left out.
# Key:
# Assay in all cases: glycan array binding signal (z-score within array); higher = stronger binding
# Conditions in all cases: glycan notation: IUPAC condensed, linker removed
# Fuc(a1-2)Gal = molecular target: Fuc(a1-2)Gal
# In short: (§1)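 Glycan array data were curated from 3228 arrays in the Consortium for Functional Glycomics database and kept only where the protein sequence was available. Glycan names were converted to IUPAC-condensed notation, and columns mapping to the same glycan were averaged. The binding signal is a within-array Z-score, averaged across arrays of the same protein sequence at different concentrations or buffers and across linkers. Negative Z-scores can be read as non-binding.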
# Fuc(a1-2)Gal(b1-3)GalNAc = molecular target: Fuc(a1-2)Gal(b1-3)GalNAc
# In short: as §1
# [1] = molecular target: Fuc(a1-2)Gal(b1-3)GalNAc(a1-3)[Fuc(a1-2)]Gal(b1-4)Glc
# In short: as §1
# [2] = molecular target: Fuc(a1-2)Gal(b1-3)GalNAc(a1-3)[Fuc(a1-2)]Gal(b1-4)GlcNAc
# In short: as §1
# [3] = molecular target: Fuc(a1-2)Gal(b1-3)GalNAc(b1-3)Gal
# In short: as §1
# [4] = molecular target: Fuc(a1-2)Gal(b1-3)GalNAc(b1-3)Gal(a1-4)Gal(b1-4)Glc
# In short: as §1
# [5] = molecular target: Fuc(a1-2)Gal(b1-3)GalNAc(b1-4)[Neu5Ac(a2-3)]Gal(b1-4)Glc
# In short: as §1
# Fuc(a1-2)Gal(b1-3)GlcNAc = molecular target: Fuc(a1-2)Gal(b1-3)GlcNAc
# In short: as §1
# [6] = molecular target: Fuc(a1-2)Gal(b1-3)GlcNAc(b1-2)Man(a1-3)[Fuc(a1-2)Gal(b1-3)GlcNAc(b1-2)Man(a1-6)]Man(b1-4)GlcNAc(b1-4)GlcNAc
# In short: as §1
# [7] = molecular target: Fuc(a1-2)Gal(b1-3)GlcNAc(b1-2)Man(a1-3)[Fuc(a1-2)Gal(b1-3)GlcNAc(b1-2)Man(a1-6)]Man(b1-4)GlcNAc(b1-4)[Fuc(a1-6)]GlcNAc
# In short: as §1
# [8] = molecular target: Fuc(a1-2)Gal(b1-3)GlcNAc(b1-3)Gal(b1-4)Glc
# In short: as §1
# [9] = molecular target: Fuc(a1-2)Gal(b1-3)GlcNAc(b1-3)GalNAc
# In short: as §1
# [10] = molecular target: Fuc(a1-2)Gal(b1-3)GlcNAc(b1-3)[Fuc(a1-2)Gal(b1-3)GlcNAc(b1-6)]GalNAc
# In short: as §1
# [11] = molecular target: Fuc(a1-2)Gal(b1-3)GlcNAc(b1-3)[Gal(b1-4)GlcNAc(b1-6)]Gal(b1-4)Glc
# In short: as §1
# [12] = molecular target: Fuc(a1-2)Gal(b1-3)GlcNAc(b1-3)[Neu5Ac(a2-6)Gal(b1-4)GlcNAc(b1-6)]Gal(b1-4)Glc
# In short: as §1
# [13] = molecular target: Fuc(a1-2)Gal(b1-3)GlcNAc6S
# In short: as §1
# [14] = molecular target: Fuc(a1-2)Gal(b1-3)[Fuc(a1-4)]GlcNAc
# In short: as §1
# [15] = molecular target: Fuc(a1-2)Gal(b1-3)[Fuc(a1-4)]GlcNAc(b1-2)Man(a1-3)[Fuc(a1-2)Gal(b1-3)[Fuc(a1-4)]GlcNAc(b1-2)Man(a1-3)]Man(b1-4)GlcNAc(b1-4)GlcNAc
# In short: as §1
# [16] = molecular target: Fuc(a1-2)Gal(b1-3)[Fuc(a1-4)]GlcNAc(b1-2)Man(a1-3)[Fuc(a1-2)Gal(b1-3)[Fuc(a1-4)]GlcNAc(b1-2)Man(a1-6)]Man(b1-4)GlcNAc(b1-4)[Fuc(a1-6)]GlcNAc(b1-4)[Fuc(a1-6)]GlcNAc
# In short: as §1
# [17] = molecular target: Fuc(a1-2)Gal(b1-3)[Fuc(a1-4)]GlcNAc(b1-3)[Fuc(a1-3)[Gal(b1-4)]GlcNAc(b1-6)]Gal(b1-4)Glc
# In short: as §1
# [18] = molecular target: Fuc(a1-2)Gal(b1-3)[Fuc(a1-4)]GlcNAc(b1-3)[Gal(b1-4)GlcNAc(b1-6)]Gal(b1-4)Glc
# In short: as §1
# [19] = molecular target: Fuc(a1-2)Gal(b1-4)Fuc(a1-3)]GlcNAc(b1-2)Man(a1-3)[Fuc(a1-2)Gal(b1-4)[Fuc(a1-3)]GlcNAc(b1-2)Man(a1-6)]Man(b1-4)GlcNAc(b1-4)GlcNAc
# In short: as §1
# Fuc(a1-2)Gal(b1-4)Glc = molecular target: Fuc(a1-2)Gal(b1-4)Glc
# In short: as §1
# Fuc(a1-2)Gal(b1-4)Glc6S = molecular target: Fuc(a1-2)Gal(b1-4)Glc6S
# In short: as §1
# Fuc(a1-2)Gal(b1-4)GlcNAc = molecular target: Fuc(a1-2)Gal(b1-4)GlcNAc
# In short: as §1
# [20] = molecular target: Fuc(a1-2)Gal(b1-4)GlcNAc(b1-2)Man
# In short: as §1
# [21] = molecular target: Fuc(a1-2)Gal(b1-4)GlcNAc(b1-2)Man(a1-3)[Fuc(a1-2)Gal(b1-4)GlcNAc(b1-2)Man(a1-6)]Man(b1-4)GlcNAc(b1-4)GlcNAc
# In short: as §1
# [22] = molecular target: Fuc(a1-2)Gal(b1-4)GlcNAc(b1-2)Man(a1-3)[Fuc(a1-2)Gal(b1-4)GlcNAc(b1-2)Man(a1-6)]Man(b1-4)GlcNAc(b1-4)[Fuc(a1-6)]GlcNAc
# In short: as §1
# [23] = molecular target: Fuc(a1-2)Gal(b1-4)GlcNAc(b1-2)[Fuc(a1-2)Gal(b1-4)GlcNAc(b1-4)]Man(a1-3)[Fuc(a1-2)Gal(b1-4)GlcNAc(b1-2)Man(a1-6)]Man(b1-4)GlcNAc(b1-4)GlcNAc
# In short: as §1
# [24] = molecular target: Fuc(a1-2)Gal(b1-4)GlcNAc(b1-3)Gal(b1-4)GlcNAc
# In short: as §1
binder,measurement,setting,value
HHA (Hippeastrum hybrid) (protein) MQQDCNLVLYDVDKPIWASNTGGLARDCHLNMQSDGNLVVYAPRNQVIWASNTQGENGNYVCILQKDRNVVIYGTARWATGTNIHGAGIVGVPGSAPQNTTAEMIKLVRKYLITK,glycan array binding signal (z-score),Fuc(a1-2)Gal,-0.215
same,glycan array binding signal (z-score),Fuc(a1-2)Gal(b1-3)GalNAc,-0.132
same,glycan array binding signal (z-score),[1],-0.202
same,glycan array binding signal (z-score),[2],-0.205
same,glycan array binding signal (z-score),[3],-0.148
same,glycan array binding signal (z-score),[4],-0.193
same,glycan array binding signal (z-score),[5],-0.203
same,glycan array binding signal (z-score),Fuc(a1-2)Gal(b1-3)GlcNAc,-0.216
same,glycan array binding signal (z-score),[6],0.241
same,glycan array binding signal (z-score),[7],0.42
same,glycan array binding signal (z-score),[8],-0.219
same,glycan array binding signal (z-score),[9],-0.145
same,glycan array binding signal (z-score),[10],-0.191
same,glycan array binding signal (z-score),[11],-0.2
same,glycan array binding signal (z-score),[12],-0.213
same,glycan array binding signal (z-score),[13],-0.18
same,glycan array binding signal (z-score),[14],-0.211
same,glycan array binding signal (z-score),[15],-0.133
same,glycan array binding signal (z-score),[16],0.036
same,glycan array binding signal (z-score),[17],-0.207
same,glycan array binding signal (z-score),[18],-0.203
same,glycan array binding signal (z-score),[19],-0.155
same,glycan array binding signal (z-score),Fuc(a1-2)Gal(b1-4)Glc,-0.224
same,glycan array binding signal (z-score),Fuc(a1-2)Gal(b1-4)Glc6S,-0.199
same,glycan array binding signal (z-score),Fuc(a1-2)Gal(b1-4)GlcNAc,-0.214
same,glycan array binding signal (z-score),[20],-0.204
same,glycan array binding signal (z-score),[21],0.036
same,glycan array binding signal (z-score),[22],0.294
same,glycan array binding signal (z-score),[23],0.026
same,glycan array binding signal (z-score),[24],-0.191

# Reference: the supplement of paper PMC8728848
